From patent publication US9199944B2 (priority 2012, dated 2015)

What was measured:
Assay in all cases: cells
[1] = tested on: H2228 (lung cancer cells); details: Homo sapiens, NCI-H2228, 72 h, read-out: H2228CP GI50 (μM)
[2] = tested on: H3122 (lung cancer cells); details: Homo sapiens, NCI-H3122, 72 h, read-out: H3122CP GI50 (μM)
[3] = tested on: Hs746T (stomach cancer cells); details: Homo sapiens, 72 h, read-out: Hs746TCP GI50 (μM)
[4] = tested on: H1993 (lung cancer cells); details: Homo sapiens, NCI-H1993, 72 h, read-out: H1993CP GI50 (μM)

Compound: COc1cc(N2CCN(C(C)=O)CC2)ccc1Nc1ncc(F)c(Nc2ccc(N3CCN(C(=O)CO)CC3)cc2OC)n1 [Example 36, 1-(4-(4-(2-(4-(4-acetylpiperazin-1-yl)-2-methoxyphenylamino)-5-fluoropyrimidin-4-ylamino)-3-methoxyphenyl)piperazin-1-yl)-2-hydroxyethanone]
- GI50 [1]: 1.14 µM
- GI50 [2]: 0.014 µM
- GI50 [3]: 6.49 µM
- GI50 [4]: > 10 µM

Compound: CCNC(=O)N1CCN(c2ccc(Nc3ncc(C(F)(F)F)c(Nc4ccc(N5CCN(C(C)=O)CC5)cc4OC)n3)c(OC)c2)CC1 [Example 64, 4-(4-((4-((4-(4-acetylpiperazin-1-yl)-2-methoxyphenyl)amino)-5-(trifluoromethyl)pyrimidin-2-yl)amino)-3-methoxyphenyl)-N-ethylpiperazin-1-carboxyamide]
- GI50 [1]: 0.38 µM
- GI50 [2]: 0.018 µM
- GI50 [3]: 2.14 µM
- GI50 [4]: 5.47 µM

Compound: C[C@@H](Oc1cc(-c2cnn(C3CCNCC3)c2)cnc1N)c1c(Cl)ccc(F)c1Cl [Crizotinib, reference compound]
- GI50 [1]: 0.851 µM
- GI50 [3]: 0.00012 µM

Compound: COc1cc(N2CCN(C(C)=O)CC2)ccc1Nc1ncc(Cl)c(Nc2ccc(N3CCN(CCO)CC3)cc2OC)n1 [Example 16, 1-(4-(4-(5-chloro-4-(4-(4-(2-hydroxyethyl)piperazin-1-yl)-2-methoxyphenylamino)pyrimidin-2-ylamino)-3-methoxyphenyl)piperazin-1-yl)ethanone]
- GI50 [1]: 0.488 µM
- GI50 [3]: 3.69 µM
- GI50 [4]: 6.73 µM

Compound: COc1cc(N2CCN(C(C)=O)CC2)ccc1Nc1ncc(F)c(Nc2ccc(N3CCN(CCO)CC3)cc2OC)n1 [Example 28, 1-(4-(4-(5-fluoro-4-(4-(4-(2-hydroxyethyl)piperazin-1-yl)-2-methoxyphenylamino)pyrimidin-2-ylamino)-3-methoxyphenyl)piperazin-1-yl)ethanone]
- GI50 [1]: 0.112 µM
- GI50 [3]: > 10 µM
- GI50 [4]: 4.28 µM

Compound: COc1cc(N2CCN(C(C)=O)CC2)ccc1Nc1ncc(F)c(Nc2ccc(N3CCN(CCO)CC3)cc2OC(F)F)n1 [Example 42, 1-(4-(4-(4-(2-(difluoromethoxy)-4-(4-(2-hydroxyethyl)piperazin-1-yl)phenylamino)-5-fluoropyrimidin-2-ylamino)-3-methoxyphenyl)piperazin-1-yl)ethanone]
- GI50 [2]: 0.032 µM
- GI50 [3]: 9.68 µM
- GI50 [4]: > 10 µM

Compound: COc1cc(N2CCN(S(C)(=O)=O)CC2)ccc1Nc1ncc(C(F)(F)F)c(Nc2ccc(N3CCN(C(C)=O)CC3)cc2OC)n1 [Example 67, 1-(4-(3-methoxy-4-((2-((2-methoxy-4-(4-(methylsulfonyl)piperazin-1-yl)phenyl)amino)-5-(trifluoromethyl)pyrimidin-4-yl)amino)phenyl)piperazin-1-yl)ethanone]
- GI50 [1]: 0.281 µM
- GI50 [3]: 1.73 µM
- GI50 [4]: > 10 µM

Compound: COc1cc(N2CCN(C(C)=O)CC2)ccc1Nc1ncc(Cl)c(Nc2ccc(N3CCNCC3)cc2F)n1 [Example 81, 1-(4-(4-((5-chloro-4-((2-fluoro-4-(piperazin-1-yl)phenyl)amino)pyrimidin-2-yl)amino)-3-methoxyphenyl)piperazin-1-yl)ethanone]
- GI50 [1]: 0.37 µM
- GI50 [3]: 0.96 µM
- GI50 [4]: 4.02 µM

Compound: COc1cc(N2CCN(C(C)=O)CC2)ccc1Nc1ncc(Cl)c(Nc2ccc(N3CCN(S(N)(=O)=O)CC3)cc2OC)n1 [Example 21, 4-(4-(2-(4-(4-acetylpiperazin-1-yl)-2-methoxyphenylamino)-5-chloropyrimidin-4-ylamino)-3-methoxyphenyl)piperazin-1-sulfonamide]
- GI50 [1]: 0.098 µM
- GI50 [3]: 3.37 µM
- GI50 [4]: 3.44 µM

Compound: COc1cc(N2CCN(C(C)=O)CC2)ccc1Nc1ncc(C(F)(F)F)c(Nc2ccc(N3CCN(CCO)CC3)cc2OC)n1 [Example 61, 1-(4-(4-((4-((4-(4-(2-hydroxyethyl)piperazin-1-yl)-2-methoxyphenyl)amino)-5-(trifluoromethyl)pyrimidin-2-yl)amino)-3-methoxyphenyl)piperazin-1-yl)ethanone]
- GI50 [1]: 0.116 µM
- GI50 [3]: 2.51 µM
- GI50 [4]: > 10 µM
